Source: PMC4336329 (PLoS ONE, 2015)
The campaign covered roughly 310,000 compounds. About 2,200 (0.71%) showed an effect of 50% or more. The effect is printed as a negative number. Some of the results follow.

molecular target: human ether-à-go-go-related gene (hERG) potassium channel (human, UniProt Q12809); assay: primary screen, population patch clamp on CHO cells stably expressing hERG
Sequence (Q12809 whole entry, looked up): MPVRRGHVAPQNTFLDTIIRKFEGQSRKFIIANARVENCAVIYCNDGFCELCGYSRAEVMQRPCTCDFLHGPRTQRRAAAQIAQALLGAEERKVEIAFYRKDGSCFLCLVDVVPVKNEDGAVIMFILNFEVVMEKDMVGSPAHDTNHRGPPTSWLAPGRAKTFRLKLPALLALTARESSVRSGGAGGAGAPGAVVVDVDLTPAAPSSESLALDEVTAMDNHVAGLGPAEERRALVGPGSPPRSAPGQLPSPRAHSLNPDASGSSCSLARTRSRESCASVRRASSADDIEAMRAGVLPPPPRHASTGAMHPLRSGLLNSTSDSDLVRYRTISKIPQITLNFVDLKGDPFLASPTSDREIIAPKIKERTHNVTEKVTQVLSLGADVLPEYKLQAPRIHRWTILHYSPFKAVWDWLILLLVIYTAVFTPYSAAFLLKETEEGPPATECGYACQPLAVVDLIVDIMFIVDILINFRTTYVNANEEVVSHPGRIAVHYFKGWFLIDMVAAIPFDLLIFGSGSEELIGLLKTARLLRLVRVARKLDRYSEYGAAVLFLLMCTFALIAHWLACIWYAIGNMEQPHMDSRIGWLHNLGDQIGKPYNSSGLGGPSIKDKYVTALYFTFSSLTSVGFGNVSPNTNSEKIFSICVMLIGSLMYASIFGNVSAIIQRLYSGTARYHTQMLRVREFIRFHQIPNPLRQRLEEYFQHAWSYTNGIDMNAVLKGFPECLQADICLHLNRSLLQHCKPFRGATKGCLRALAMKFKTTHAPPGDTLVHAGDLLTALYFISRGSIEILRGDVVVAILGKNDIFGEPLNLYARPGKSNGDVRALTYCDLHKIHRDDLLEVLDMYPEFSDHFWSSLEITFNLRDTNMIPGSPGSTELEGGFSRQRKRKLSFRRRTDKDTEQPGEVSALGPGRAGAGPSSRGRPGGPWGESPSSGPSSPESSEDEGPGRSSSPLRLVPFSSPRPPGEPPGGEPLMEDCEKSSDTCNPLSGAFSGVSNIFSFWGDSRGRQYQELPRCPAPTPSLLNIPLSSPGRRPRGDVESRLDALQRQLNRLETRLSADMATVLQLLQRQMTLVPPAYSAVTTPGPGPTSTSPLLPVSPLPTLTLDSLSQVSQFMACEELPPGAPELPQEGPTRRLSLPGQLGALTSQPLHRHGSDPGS

Compared with `O=S(=O)(c1cccc(C(F)(F)F)c1)N1CCN(c2cnccn2)CC1`, `CC(=O)Nc1ccc(S(=O)(=O)N2CCN=C2SCc2cccc(C)c2)cc1` is higher in “hERG current change (%, negative = inhibition) at 1uM” value: -1.19% for the first, 2.58% for the second.

Going from `Cc1cc(C(=O)OCC(=O)Nc2ccccc2Cl)c(C)o1` to `CCOC(=O)CCNC(=O)Nc1ccc2nc(C)n(Cc3ccccc3Cl)c(=O)c2c1`, the “hERG current change (%, negative = inhibition) at 1uM” value falls from 8.72% to 8.49%.

Compared with `COCC(C)NC(=O)/C(=C/c1ccccc1)c1ccccc1` (stereo not shown), `O=C(c1ccccc1)C1CCN(C(=O)Nc2ccccc2)CC1` is higher in “hERG current change (%, negative = inhibition) at 1uM” value: -9.73% for the first, 9.03% for the second.

First: CCOC(=O)c1sc(=S)n(CC)c1N
Second: CCOC(=O)c1[nH]c(C)c(C(=O)N2CCN(c3ccc(F)cc3)CC2)c1C
The “hERG current change (%, negative = inhibition) at 1uM” value of the first is higher: 10.5% for the first, 1.16% for the second.

Compared with `CCCCCCn1c(N)c(C(=O)NCCN2CCOCC2)c2nc3ccccc3nc21`, `Cc1[nH]c2ccc(C(=O)NCCCN3CCCC3)cc2c1C` is higher in “hERG current change (%, negative = inhibition) at 1uM” value: 9.09% for the first, 15.6% for the second.

Compared with `CC(C)CC(=O)N1CCC(N(CCc2ccccc2)Cc2ccccc2)CC1.O=C(O)C(=O)O`, `COc1ccc(NC(=O)C2CCN(C(=O)Cc3ccccc3)CC2)c(OC)c1` is higher in “hERG current change (%, negative = inhibition) at 1uM” value: 7.09% for the first, 22.1% for the second.

Going from `Nc1nc(SCc2cccc([N+](=O)[O-])c2)n[nH]1` to `CC1CCC/C(=N/Nc2ccc([N+](=O)[O-])cc2[N+](=O)[O-])C1` (stereo not shown), the “hERG current change (%, negative = inhibition) at 1uM” value falls from 9.78% to 6.43%.

Going from `CCN(c1cccc(C)c1)C(C(=O)Nc1ccc(OC)cc1)c1cc2c(cc1[N+](=O)[O-])OCO2` (stereo not shown) to `COc1cccc(-c2ncc3ccccc3c2COC(=O)c2ccc(C(C)(C)C)cc2)c1`, the “hERG current change (%, negative = inhibition) at 1uM” value falls from 13.9% to 9.32%.

First: COc1ccc(NC(=S)N(CCC(C)C)C2CCN(C(C)C)CC2)cc1Cl
Second: CCCS(=O)(=O)N1CCCC(C(=O)Oc2ccc(C)c(C)c2)C1 (stereo not shown)
The “hERG current change (%, negative = inhibition) at 1uM” value of the first is lower: -17% for the first, 13.3% for the second.

Compared with `Cc1[nH]nc(N)c1N=Nc1ccc(Br)cc1`, `Cc1cc(C)nc(SCC(=O)NC2=NN=C(c3ccc(Br)cc3)CS2)n1` is lower in “hERG current change (%, negative = inhibition) at 1uM” value: 13.6% for the first, -0.676% for the second.

Going from `O=C(N[C@@H](Cc1ccccc1)C(=O)OCc1ccccc1)c1nc[nH]c1C(=O)N1CCN(c2ccccc2)CC1` to `CCC(=O)N1CCN(c2ccc(NC(=O)c3ccc(N4CCCC4)c([N+](=O)[O-])c3)cc2)CC1`, the “hERG current change (%, negative = inhibition) at 1uM” value falls from 8.19% to 4.57%.

Going from `O=S(=O)(/C=C/c1ccccc1)n1cnc2ccccc21` to `O=C(CN1C(=O)c2ccccc2C1=O)c1ccccc1`, the “hERG current change (%, negative = inhibition) at 1uM” value falls from 12.1% to 10.2%.

Compared with `COc1ccccc1CNC(=O)c1ccc(OC(F)F)c(OC)c1`, `COc1ccccc1/C=C/C=N/NC(=O)c1cccs1` is higher in “hERG current change (%, negative = inhibition) at 1uM” value: 2.84% for the first, 16.1% for the second.

First: CCOC(=O)C1CCCN(c2c(N3CCN(C)CC3)c(=O)c2=O)C1 (stereo not shown)
Second: COc1ccc(N2CCN(C3CCCN(Cc4cccc(OC)c4)C3)CC2)cc1 (stereo not shown)
The “hERG current change (%, negative = inhibition) at 1uM” value of the first is higher: 10.2% for the first, -27.1% for the second.

Compared with `CCN(CC(=O)Nc1cc(Cl)ccc1C)C(=O)C1CC1`, `CCOc1ccc(CCNC(=O)C2CCN(S(=O)(=O)N3CCCCC3)CC2)cc1OCC` is lower in “hERG current change (%, negative = inhibition) at 1uM” value: 9.06% for the first, 2.07% for the second.

Going from `CC1=C(C#N)C(=O)NC(C)(C)C1` to `COCc1cc(C)c2c(N)c(C#N)sc2n1`, the “hERG current change (%, negative = inhibition) at 1uM” value falls from 7.75% to -1.84%.

Compared with `CCCCC(=O)NNC(=S)NC(=O)c1ccc([N+](=O)[O-])cc1`, `NNC(=O)c1ccc([N+](=O)[O-])c(CS(=O)(=O)c2ccc(Cl)cc2)c1` is lower in “hERG current change (%, negative = inhibition) at 1uM” value: 17.6% for the first, -0.315% for the second.

First: CCc1cc2c(=O)c(Oc3ccccc3F)c(C)oc2c(CN(C)C)c1O
Second: CCCOP(=O)(c1ccc(N(C)C)cc1)C(O)c1ccc(Br)cc1 (stereo not shown)
The “hERG current change (%, negative = inhibition) at 1uM” value of the first is lower: 11.8% for the first, 11.9% for the second.

First: CCc1ccc(S(=O)(=O)N/N=C(/C)c2ccncc2)cc1
Second: Cc1csc(NC(=O)c2ccc(S(C)(=O)=O)cc2)n1
The “hERG current change (%, negative = inhibition) at 1uM” value of the first is lower: -12.2% for the first, -0.494% for the second.

Going from `CC(C)Oc1ccc(C(=O)N2CCCC2C(=O)O)cc1` (stereo not shown) to `O=C(c1cc(-c2ccc(Cl)c(Cl)c2)on1)N1CCCCC1`, the “hERG current change (%, negative = inhibition) at 1uM” value falls from 15% to -17%.

Going from `COc1ccc(-c2csc(NC(=S)NC(=O)/C=C/c3ccccc3)n2)cc1Br` to `Cc1ccccc1-n1c(Cn2c(=O)sc3ccccc32)nnc1SCC(=O)NCC1CCCO1` (stereo not shown), the “hERG current change (%, negative = inhibition) at 1uM” value falls from 19.1% to 4.61%.

With `Cc1cc2c(nn1)CCc1c-2no[n+]1[O-]` the “hERG current change (%, negative = inhibition) at 1uM” value was 21.4%.
